PubChem BioAssay AID652106 (National Center for Advancing Translational Sciences (NCATS), 2013)
About 500 (0.14%) of roughly 370,000 compounds were called active. The shares of active, inactive and inconclusive entries below differ from those in the screen. Calls come from the whole dose curve; as a rule, active = well fitted activation curve with a large enough effect; inconclusive = small, poorly fitted or top-dose-only effect; inactive = no such curve, though single readings can be large or run the other way. No potency is given beside an inconclusive call; the fits are too rough.

Experiment: qHTS of alpha-syn Inhibitors; note: nearly all actives have a fitted effect of over 65% in size
Conditions: Yeast expressing alpha-synuclein, BacTiter-Glo, 24 h; Potency: growth rescue unless noted; series mostly up to 46.1 µM
Method in brief: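 Screening used galactose-induced yeast with toxic alpha-synuclein levels, exposed to compound for 24 hr at 30 deg C. Cell growth, read with BacTiter-Glo luminescence, gave the measured signal.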
Potency is the fitted concentration of half-maximal effect; tags give direction and shape of the fitted curve.

| Structure (SMILES) | Potency |
| --- | --- |
| Cc1ccc(CN(C)C(=O)c2ccccc2Sc2ccccc2C#N)cc1 | inconclusive [activator, single point] |
| CCn1c(CCNC(=O)c2ccc(OC)cc2)nnc1SCc1ccc(Cl)c(Cl)c1 | inconclusive [activator, single point] |
| CC(C)=CCC[C@](C)(O[C@@H]1O[C@H](CO[C@@H]2OC[C@H](O[C@@H]3OC[C@@H](O)[C@H](O)[C@H]3O)[C@H](O)[C@H]2O)[C@@H](O)[C@H](O)[C@H]1O)C1CC[C@]2(C)C1[C@H](O)CC1[C@@]3(C)CC[C@H](O)C(C)(C)C3[C@@H](O)C[C@]12C (some centres undefined) | inactive |
| CCOC(=O)c1[nH]c(C)c(C(=O)Nc2ccc(C)c(C)c2)c1C | inactive |
| Cc1ccc(NC(=O)c2nc[nH]c2C(=O)N[C@@H](C)c2ccccc2)cc1 | inactive |
| NC(=O)C1CCN(C2CC(=O)N(c3cccc(F)c3)C2=O)CC1 (centres undefined) | inactive |
| Nc1nn(S(=O)(=O)c2cccc3nsnc23)cc1-c1ccc(Br)cc1 | inconclusive [activator, single point] |
| COC(=O)C1=C(C(=O)OC)SC(=C2C(=S)C(C)(C)N(C(=O)C(C)C)c3ccccc32)S1 | inconclusive [activator, partial curve] |
| Nc1cc2nsnc2cc1Br | inactive |
| Cc1cccc(C)c1-n1nnnc1C1(C)CCC(=O)N1CC1CCCCC1 (centres undefined) | inconclusive [activator, single point] |
| O=C(COc1ccc(F)cc1Br)NCC1COc2ccccc2O1 (centres undefined) | inconclusive [activator, single point] |
| COc1ccc(OC)c(-c2c(=O)n(OCc3ccccc3Br)c3ccccc3[n+]2[O-])c1 | inconclusive [activator, single point] |
| O=C(Nc1nnc([C@@H]2O[C@H](CO)[C@@H](O)[C@H]2O)s1)Nc1cccc2c1CCCC2 | inconclusive [activator, single point] |
| Cc1ccccc1C(=O)NNC(=S)NC(=O)c1ccccc1 | inconclusive [activator, single point] |
| CC(C)COC(=O)N(C)C[C@@H]1OCc2cnnn2CCCC(=O)N([C@H](C)CO)C[C@@H]1C | inactive |
| Cc1cccc(N2CCN(C(=O)c3ccc4ncsc4c3)CC2)c1C | inactive |
| CCC1CCCCN1S(=O)(=O)c1ccc2[nH]c(=O)ccc2c1 (centres undefined) | inconclusive [activator, single point] |
| O=C(CSc1nc2ccccc2c(=O)n1-c1ccccc1F)Nc1ccc2c(c1)CCC2 | inconclusive [activator, partial curve] |
| CS(=O)(=O)Nc1ccc2c(c1)[C@@H]1C[C@@H](CC(=O)NCc3cccnc3)O[C@H](CO)[C@@H]1O2 | inconclusive [activator, single point] |
| Cc1ccc(C)c(NS(=O)(=O)c2ccc(-c3cnc(C4CC4)o3)cc2)c1 | inconclusive [activator, single point] |
| CC(=O)C1=CCC(c2ccc(Cl)cc2)N(S(=O)(=O)c2ccccc2)C1 (centres undefined) | inconclusive [activator, single point] |
| O=C(c1ccc2ccccc2c1)C1CCCN(C(=O)c2noc3c2CCCC3)C1 (centres undefined) | inactive |

| Structure (SMILES) | Potency |
| --- | --- |
| OC(c1ccc(F)c(F)c1)c1nc(-c2csc3ccccc23)cs1 (centres undefined) | inactive |
| COc1ccc(-n2c(CNc3ccc(C)cc3)nnc2SCc2ccccc2)cc1 | inconclusive [activator, single point] |
| CC1Cc2ccccc2N1S(=O)(=O)c1cccc2nsnc12 (centres undefined) | inconclusive [activator, single point] |
| COc1ccccc1C(=O)COC(=O)COc1cccc2c1OC(C)(C)C2 | inconclusive [activator, single point] |
| O=C1C(=Cc2ccncc2)CCCc2ccccc21 | inconclusive [activator, single point] |
| Cc1c(S(=O)(=O)Nc2ccc(Oc3ccccc3)cc2)c(=O)n(C)c(=O)n1C | inconclusive [activator, single point] |
| O=C(N/N=C/c1ccc2ncccc2c1)c1cc(-c2cccs2)nc2ccccc12 | inconclusive [activator, single point] |
| O=C1OC(/C(=C\Nc2cc(Cl)ccc2O)[N+](=O)[O-])c2ccccc21 (centres undefined) | inconclusive [activator, partial curve] |
| CC1(C)Cc2cccc(OCC(=O)NCCOc3ccccc3)c2O1 | inconclusive [activator, single point] |
| COC(=O)C(C)Oc1ccc(-c2nccc(-c3cccs3)n2)cc1 (centres undefined) | inactive |
| Cc1ccc(S(=O)(=O)c2nc(S(=O)(=O)c3ccccc3)sc2N2CCN(CCO)CC2)cc1 | inconclusive [activator, single point] |
| COc1ccccc1C(=O)COC(=O)C1CCN(S(=O)(=O)c2ccccc2)CC1 | inconclusive [activator, single point] |
| CC1(C(=O)NCc2ccccc2Br)CCN1Cc1ccc(-c2ccccc2)o1 (centres undefined) | inconclusive [activator, single point] |
| CCCC(=O)N1CCCC1(C)C(=O)Nc1ccc2nc(C)ccc2c1 (centres undefined) | inconclusive [activator, single point] |
| CCCCn1c(N)c(N(CCC(C)C)C(=O)c2ccccc2-n2cnnn2)c(=O)[nH]c1=O | inactive |
| Cc1noc(C)c1COc1ccccc1C(=O)NNC(=O)c1ccccc1F | inconclusive [activator, single point] |
| CC1C(=O)N(Cc2cn(Cc3ccco3)nn2)CCS(=O)(=O)N1Cc1ccc(-c2ccccc2Cl)cc1 (centres undefined) | inconclusive [activator, single point] |
| Cc1cccc2sc(NC(=O)CN(C)S(=O)(=O)c3cccs3)nc12 | inactive |
| CC(C)(C)NC(=O)NC(=O)COC(=O)Cc1coc2ccc3ccccc3c12 | inconclusive [activator, single point] |
| OC[C@@H]1CN(Cc2ccc(-c3ccccc3)cc2)C[C@H](n2cnc3c(NCc4ccc(F)cc4)ncnc32)O1 | inconclusive [activator, single point] |
| CCOc1ccc(NC(=O)CN(C)C(=O)CCCn2c(=O)oc3ccccc32)cc1OCC | inactive |
| CCNc1nc(NCC)nc(-n2nc(C)cc2C)n1 | inconclusive [activator, single point] |

| Structure (SMILES) | Potency |
| --- | --- |
| O=C(NCc1ccc(Cl)c(Cl)c1)c1cc(C2CCCCN2C(=O)CCc2ccccc2)on1 (centres undefined) | inconclusive [activator, single point] |
| O=C(CSc1ncnc2[nH]ncc12)Nc1nc(-c2ccc(F)c(F)c2)cs1 | inconclusive [activator, single point] |
| Cc1ccc(-c2nc3cnccn3c2Nc2ccc3c(c2)OCO3)o1 | inconclusive [activator, single point] |
| O=C(C(=Cc1ccc(F)cc1)C(=O)c1ccccc1)c1ccccc1 | inconclusive [activator, single point] |
| CN(C(=O)c1ccncc1)c1nnc(-c2cccnc2)s1 | inconclusive [activator, single point] |
| COc1ccc(C(O)c2nc(-c3cccc(O)c3)cs2)cc1 (centres undefined) | inconclusive [activator, single point] |
| Cc1nc(SCC(=O)N2CCN(C(=O)c3ccco3)CC2)c2c(C)c(C)sc2n1 | inconclusive [activator, single point] |
| CCOC(=O)CC1(NC(=O)c2cc(COc3c(F)cccc3F)on2)CCCCC1 | inactive |
| CN(c1ccc(Cl)cc1)S(=O)(=O)c1nnc(NC(=O)C(C)(C)C)s1 | inconclusive [activator, single point] |
| CCCCCC(=O)N1C[C@@H](O)[C@H](n2cc(-c3ccc(F)cc3)nn2)C[C@@H]1c1ccc(Cl)cc1 | inconclusive [activator, partial curve] |
| O=C(CCS(=O)(=O)c1ccccc1)NC1CCCC1 | inconclusive [activator, single point] |
| CCS(=O)(=O)N1CCC(c2nc3ccccc3[nH]2)CC1 | inconclusive [activator, partial curve, poor fit] |
| CCN(CC)S(=O)(=O)c1cccc(C(=O)NC(C(=O)NNC(=O)c2ccccc2F)C(C)C)c1 (centres undefined) | inactive |
| COc1ccc(OC)c(N(CC(=O)NCc2ccccc2)S(=O)(=O)c2ccc(OC)c(OC)c2)c1 | inconclusive [activator, single point] |
| CCOc1cc(C)c(S(=O)(=O)N2CCCCC2)cc1C | active: 15.8 µM |
| CCOC(=O)COc1ccc(S(=O)(=O)Nc2ccc3c(c2)OCO3)cc1 | inconclusive [activator, single point] |
| c1ccc2c(c1)-c1cccc3cncc-2c13 | inconclusive [activator, single point] |
| COc1ccc(OCC(=O)NNC(=S)NC(=O)C2CC2)cc1 | inconclusive [activator, single point] |
| CCOCCCNC(=O)/C(C#N)=C/c1ccc(Cl)c([N+](=O)[O-])c1 | inconclusive [activator, partial curve] |
| Cc1ccc(CNC(=O)CCc2nnc3ccc(NCCCN4CCCC4=O)nn23)cc1 | inconclusive [activator, single point] |
